# In the supplement of paper PMC12217912:
# The other results are listed elsewhere or left out. Sequences were assembled here from the parent chain. Values near 0.05 are background.
# B1: TEV protease; numbered along this chain (parent)
# chain: MGESLFKGPRDYNPISSSICHLTNESDGHTTSLYGIGFGPFIITNKHLFRRNNGTLVVQSLHGVFKVKDTTTLQQHLVDGRDMIIIRMPKDFPPFPQKLKFREPQREERICLVTTNFQTKSMSSMVSDTSCTFPSGDGIFWKHWIQTKDGQCGSPLVSTRDGFIVGIHSASNFTNTNNYFTSVPKNFMELLTNQEAQQWVSGWRLNADSVLWGGHKVFMVKPEEPFQPVKEATQL
# Variants of: B1
# Test: raw area under fraction-flipped curve 0-4 h after induction (AUC4h, not background-subtracted), DNA-recorder readout of cleavage of the substrate (dimensionless); higher = more cleavage of the substrate by the protease variant
# Details: temperature: 34 °C; time window: 0-4 h after rhamnose induction
# Protocol: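 In vivo DNA recorder in E. coli TOP10(DE3) ΔrhaA at 34 °C. Each TEVp single-site mutant (parent TEVp 0) is paired with a single-site variant of the 7-mer TEVs (canonical ENLYFQ|S). The substrate sits between flexible linkers in a Bxb1-sfGFP-TEVs-SsrA fusion, so cleavage stabilises Bxb1 and speeds flipping of a recombination array, read by NGS. The value is the raw area under the fraction-flipped curve over 0-4 h after rhamnose induction (AUC4h), with ≥20 reads per time point. It is not background-subtracted; inactive controls average about 0.047.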
# 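Further: Bxb1 expression induced with 0.2% (w/v) L-rhamnose at OD600 near 0.5, cultures sampled hourly, flipped fraction per protease–substrate barcode pair counted by paired-end Illumina sequencing.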
Variant,area with substrate ENLCFQS,area with substrate ENLDFQS,area with substrate ENLFFQS,area with substrate ENLGFQS,area with substrate ENLHFQS,area with substrate ENLIFQS,area with substrate ENLKFQS,area with substrate ENLNFQS,area with substrate ENLPFQS,area with substrate ENLQFQS,area with substrate ENLRFQS,area with substrate ENLSFQS,area with substrate ENLVFQS,area with substrate ENLWFQS,area with substrate ENLEFQS,area with substrate ENLLFQS,area with substrate ENLMFQS,area with substrate ENLTFQS
P184F,0.0576,0.0641,0.085,0.0636,0.0608,0.0648,0.0669,0.0688,0.0793,0.0565,0.0665,0.0705,0.061,0.0499,,,,
P155I,0.0651,0.0626,0.0862,,0.0563,0.0673,0.0725,0.0587,0.0602,0.0567,0.0561,0.0315,0.0676,0.0559,0.0583,0.0532,0.0607,
I139V,0.0604,0.0672,0.0768,,0.07,0.0881,0.0822,0.0532,0.0636,0.055,0.0761,0.057,0.0662,,0.06,0.0859,,0.0774
S158N,0.0545,0.0486,0.0603,0.0737,,0.061,0.0639,0.0752,,,0.0747,,,0.0699,0.0449,0.0665,,
T70L,0.0641,0.0588,0.0629,0.071,0.0456,,0.0635,0.0732,0.0614,,0.0517,0.0667,0.0773,,0.0754,,0.0589,
V58R,0.0457,0.0438,0.0569,,,0.0585,,0.0643,,0.0593,0.0529,0.057,,,0.054,,,
E107L,0.0603,0.0654,0.0683,,,0.0949,0.0672,0.0637,,0.0812,0.0723,,,0.0752,,,,
G54M,0.0619,0.0574,0.0677,0.0647,0.0423,0.0672,0.0556,,0.0618,0.0506,0.0564,0.0552,0.0449,0.0573,0.0612,0.0612,0.0554,0.0647
I15P,0.0345,0.0617,0.1,0.0783,0.0793,0.0776,0.0708,0.0518,,,0.0685,0.0584,,0.0651,,0.0631,,0.0581
C131M,0.0601,0.051,0.0709,0.0692,,0.058,,0.0573,0.0671,0.0608,,,,,0.068,,,
Q75A,0.0565,0.0644,0.0579,,0.0581,0.0603,0.0655,0.0596,0.0634,,,0.0629,,0.0776,0.0505,0.0534,,
Q75E,0.0598,0.0579,0.0529,,,0.0728,0.0606,0.0649,0.0572,0.0565,0.0731,0.0632,,,0.064,,,
T132E,0.0731,,,,0.0733,,0.0714,0.0646,0.0515,0.0455,,0.0664,0.0495,,0.0534,,,
C111D,0.0578,0.0655,0.0601,,0.0593,0.0635,0.0709,0.0715,0.0555,,0.0512,0.0591,0.0525,0.0444,,,0.0761,
D79K,0.0448,0.0648,0.0695,,0.0529,,,0.0637,0.0603,0.0859,0.0595,0.076,,0.0633,0.0558,,0.0894,
D137V,0.089,,0.0907,,0.0703,0.111,,,0.0749,,,0.0608,,,,,,
L5P,0.0616,0.0712,0.0562,,0.0697,,,0.056,,,0.0685,,,,,,,
N13H,0.0844,0.0602,,0.0734,0.0632,,0.0837,0.0653,0.058,0.0612,0.0802,,0.0784,0.0646,0.0565,,0.0946,0.089
C20L,0.0662,0.0797,0.082,0.0727,0.0348,0.0978,0.0805,0.0611,0.0602,0.0758,0.072,0.0565,,0.0648,0.0656,0.063,0.0688,
C20W,0.0444,0.0355,0.0495,0.0374,0.0409,,0.0438,0.0523,0.0493,,0.0389,0.0534,,0.0382,0.0464,0.0438,,0.0475
F133M,0.0735,0.0704,0.0989,0.0745,0.062,0.0796,0.0888,0.0706,0.061,0.0737,0.0597,0.0792,0.0806,,0.0625,0.062,0.076,
F133P,0.0221,0.0432,0.0661,,0.0677,,,0.0556,0.0467,0.0573,0.0566,0.0506,0.0659,,0.0567,,,
K68I,0.0625,0.0655,0.0715,,0.0684,,0.0846,0.0622,0.0709,0.0618,0.0764,,0.0778,0.0484,,0.0676,,
K68Y,0.0522,0.0367,0.0584,,0.0674,,0.0784,0.0533,0.0791,0.068,,,,,0.0735,0.0756,,
N175L,0.0674,0.0606,0.0782,0.0712,,0.0727,0.0615,0.0652,0.0621,,0.0679,,0.0732,,,0.06,0.0788,
P89L,0.0633,,0.0621,0.0529,0.062,0.0581,,0.0457,0.0166,,,,,,,0.0498,,
F101V,0.0437,,0.0527,,0.0481,0.0683,0.0708,0.0772,,0.0611,,0.0385,,,,,,
T44I,0.0376,0.0534,0.0679,,0.0525,0.043,0.058,0.056,0.0593,0.0607,0.0627,0.0627,,,0.0653,0.0573,,0.0518
T44N,0.0491,,0.0442,,0.0417,0.0604,0.0455,0.0464,0.0576,0.0449,,0.0544,,0.0501,,0.0426,0.0237,0.0527
